Laboratory results taken from PubChem BioAssay AID686978 (National Center for Advancing Translational Sciences (NCATS), 2013).
Out of some 420,000 compounds screened, about 64,000 (15%) were called active. Inconclusive means that the source gave no clear call. Such entries were picked first, then a sample of the others. Calls follow the shape of the dose curve; as a rule, active = well fitted inhibition curve with a large enough effect; inconclusive = small, poorly fitted or top-dose-only effect; inactive = flat fitted curve, though single readings scatter. No potency is given beside an inconclusive call; the fits are too rough.

Assay: qHTS for Inhibitors of human tyrosyl-DNA phosphodiesterase 1 (TDP1): qHTS in cells in absence of CPT; also: nearly all actives have a fitted effect of over 55% in size
Details: DT40 Tdp1-/- hTDP1 cells, no CPT, ATP luminescence, 48 h; activity change, negative = growth inhibition: at 46.2 µM (top of the series) unless noted
Outline: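 Cells were dispensed at 400 per well, compounds added by pin tool, plates incubated ≥48 hr at 37 °C, then CellTiter-Glo added for 30 min at room temperature before luminescence reading. Line: DT40 Tdp1-/- complemented with hTDP1; camptothecin omitted.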
% is scaled to controls: 0 for no effect and ±100 for the full control effect; potency is read from the fitted curve at half-maximal effect; tags tell the direction and shape of the fitted curve.

Row | Structure (SMILES) | activity change, negative = growth inhibition | Potency
1 | COc1ccc(Cc2nnc(SCC(=O)Nc3ccc(C)c(Cl)c3)[nH]c2=O)cc1 | inactive: -11.1% | –
2 | COc1ccc(S(=O)(=O)NCCc2c[nH]c3ccc(C)cc23)cc1 | inactive: 5.07% | –
3 | CCn1c(SCC(=O)NC(C)(C)C)nnc1-c1ccccn1 | inactive: -7.81% | –
4 | N#CCC(=O)N/N=C/c1ccc(SCC(=O)Nc2ccccc2)o1 | – | inconclusive [inhibitor, single point]
5 | COc1cccc(NC(=O)CSc2nccn(-c3ccc4c(c3)OCCO4)c2=O)c1 | – | inconclusive [inhibitor, single point]
6 | COc1ccc(-c2cn3c(n2)sc2cc(C(=O)NCCCN4CCCCCC4)ccc23)cc1 | – | active: 3.26 µM
7 | Cc1onc(-c2ccccc2)c1C(=O)N/N=C/c1cc2c(cc1Cl)OCO2 | – | inconclusive [inhibitor, partial curve]
8 | CCOC(=O)C1(CCOc2ccccc2)CCN(Cc2ccc(F)c(OC)c2)CC1 | – | active: 6.51 µM
9 | CCOC(=O)c1c(C)n(CC(O)c2ccccc2)c2ccc(O)cc12 (stereo not given) | – | active: 18.4 µM
10 | CCCN(Cc1cc2cccc(C)c2[nH]c1=O)C(=O)c1cccc(OC)c1 | – | active: 16.4 µM
11 | Cc1cc(NS(=O)(=O)c2ccc(NC(=O)Cc3ccccc3)cc2)nc(C)n1 | inactive: -9.26% | –
12 | Cc1ccccc1NC(=O)/C(C#N)=C\c1cc(C)n(-c2ccc(C(=O)O)cc2)c1C | inactive: -11.3% | –
13 | Cc1cc(C)c(C)c(OCCCn2ccnc2)c1 | – | inconclusive [inhibitor, full curve]
14 | CC[C@@]12C(=O)N(c3cccc(Br)c3)C(=O)N1[C@H](c1ccc(Br)cc1)[C@@H]1C(=O)N(C(C)(C)C)C(=O)[C@@H]12 | – | inconclusive [inhibitor, single point]
15 | CCCOC(=O)c1c(NC(=O)C2c3ccccc3Oc3ccccc32)sc2c1CCC(C)C2 (stereo not given) | inactive: -10.7% | –
16 | CCOC(=O)c1c(C)[nH]c(C(=O)OCc2ccccc2)c1C | – | inconclusive [inhibitor, partial curve]
17 | O=C(NCc1ccccc1CN1CCCC1)C1CCN(C(=O)c2ccc(Cl)cc2)CC1 | inactive: -23% | –
18 | CCOc1cccc2sc(NC(=O)c3ccc(Br)s3)nc12 | – | inconclusive [inhibitor, partial curve]

Row | Structure (SMILES) | activity change, negative = growth inhibition | Potency
19 | COCCCNC(=O)Cn1cc(C(C)=O)c2ccccc21 | inactive: -20.6% | –
20 | Cc1ccccc1OCc1nnc(SCC(=O)Nc2ccc3c(c2)oc2ccccc23)n1C | – | inconclusive [inhibitor, partial curve, poor fit]
21 | CC(C)NC(=O)C(c1ccc(F)cc1)N(C(=O)CCC(=O)Nc1ccccn1)c1ccccc1F (stereo not given) | inactive: 0.0629% | –
22 | CCN(CC(=O)Nc1ccc(NC(C)=O)cc1)C(=O)/C=C/c1c(C)nn(-c2ccc(F)cc2)c1Cl | – | inconclusive [inhibitor, single point]
23 | O=C(N/C(=C\c1ccccc1)C(=O)N1CCOCC1)c1ccccc1Cl | inactive: 6.21% | –
24 | O=C1CC(N2CCN(c3ccc(O)cc3)CC2)C(=O)N1Cc1cccs1 (stereo not given) | – | inconclusive [inhibitor, full curve, poor fit]
25 | O=C(Nc1cccc(Cl)c1)Nc1nnc([C@H]2C[C@H](O)[C@@H](CO)O2)s1 | – | inconclusive [inhibitor, single point]
26 | O=C(Nc1ccn(Cc2ccccc2F)n1)c1ccc(COc2cc(Cl)ccc2Cl)o1 | – | inconclusive [inhibitor, single point]
27 | O=C(Cn1cc(C(=O)c2ccco2)c2ccccc21)NC1CCCCC1 | – | inconclusive [inhibitor, partial curve, poor fit]
28 | CCc1nc2ccc(C(=O)N(CC)CCN(C)C)cn2c1N(C)Cc1nccs1 | inactive: -1.72% | –
29 | Cc1cc(NC(=O)CSc2nnc(-c3ccncc3)n2C)n(-c2ccccc2)n1 | inactive: -2.79% | –
30 | CCOc1ccc(NCc2ccccc2OCc2cccc(F)c2)cc1 | – | inconclusive [inhibitor, single point]
31 | CCOC(=O)c1ccc(N2CN(CC)CNC2=S)cc1 | – | inconclusive [inhibitor, partial curve]
32 | COc1ccc(-n2c(COc3ccc(C)cc3)nnc2SCc2ccc(C#N)cc2)cc1 | – | inconclusive [inhibitor, single point]
33 | Cc1c(Cl)cc(-n2cnnn2)cc1[N+](=O)[O-] | inactive: -28.7% | –
34 | CC1O[C@@H](O[C@@H]2C(O)C[C@H](O[C@@H]3C(O)C[C@@H](OC4CC[C@@]5(C)C6CC(O)[C@@]7(C)C(C8=CC(=O)OC8)CC[C@@]7(O)C6CC[C@@H]5C4)OC3C)OC2C)CC(O)[C@H]1O (stereo not given in full) | – | active: 1.84 µM
35 | CCCn1c(NC(=O)C2CCN(C(=O)c3ccccc3C)CC2)nc2ccccc21 | – | inconclusive [inhibitor, single point]
